About 230 (0.21%) of roughly 110,000 compounds showed an effect of 50% or more. Some of the results follow.
The compounds below were run against DPAP1 (Plasmodium falciparum, UniProt Q8IIJ9) (assay: primary screen, percent inhibition; read by cleavage of a fluorogenic dipeptide substrate; higher = more effect of the substance).
Parameters: species or system P. falciparum D10 trophozoite lysates; single well
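Note: 30 min substrate incubation versus DMSO and 10 µM JCP410 controls.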

DPAP1, sequence (Q8IIJ9 whole entry, looked up): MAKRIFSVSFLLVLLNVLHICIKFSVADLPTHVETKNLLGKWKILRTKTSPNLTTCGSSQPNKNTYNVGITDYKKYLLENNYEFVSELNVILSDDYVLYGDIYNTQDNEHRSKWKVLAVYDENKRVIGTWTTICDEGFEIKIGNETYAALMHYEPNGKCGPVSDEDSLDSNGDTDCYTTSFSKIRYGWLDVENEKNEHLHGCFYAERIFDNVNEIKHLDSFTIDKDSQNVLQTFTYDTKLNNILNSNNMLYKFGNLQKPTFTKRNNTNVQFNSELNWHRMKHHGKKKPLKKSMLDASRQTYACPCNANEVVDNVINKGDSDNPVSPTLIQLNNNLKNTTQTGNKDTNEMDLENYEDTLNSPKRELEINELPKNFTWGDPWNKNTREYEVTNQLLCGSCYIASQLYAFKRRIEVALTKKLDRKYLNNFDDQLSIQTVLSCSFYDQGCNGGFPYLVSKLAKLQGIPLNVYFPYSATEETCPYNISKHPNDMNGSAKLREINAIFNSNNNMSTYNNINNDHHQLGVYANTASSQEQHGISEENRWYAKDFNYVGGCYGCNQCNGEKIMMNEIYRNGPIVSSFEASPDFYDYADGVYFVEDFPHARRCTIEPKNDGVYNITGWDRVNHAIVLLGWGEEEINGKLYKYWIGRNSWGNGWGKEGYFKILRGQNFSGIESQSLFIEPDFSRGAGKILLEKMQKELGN

Structure (SMILES) | % Inhibition @ 10 uM
Cc1nc2c(sc3nc4c(cc32)COC(C)(C)C4)c(=O)n1CCN1CCOCC1 | 2.69%
O=S1(=O)C(/C=N/Cc2cccs2)=C(O)c2sccc2N1Cc1ccc(Cl)cc1 | -1.07%
CCOc1cc(/C=C2/SC(=O)N(C(C)C)C2=O)cc(Cl)c1OCC(=O)O | -0.95%
COc1cc(NS(=O)(=O)c2ccc(NC(=O)C(C)(C)C)cc2)nc(OC)n1 | -2.15%
CCOc1ccccc1N(CC(=O)NC1CCCC1)S(=O)(=O)c1ccc(C)cc1 | -8.61%
O=C(NCCc1ccccc1)c1cc(-c2ccc(Br)cc2)n[nH]1 | 5.93%
COc1cc(C2N3CC4(C)CN2CC(C)(C3)C4=O)ccc1O (stereo not shown) | -2.55%
Cc1cccc(C)c1NC(=O)c1cnn(C)c1C | -4.18%
CCN(CC)CCNc1nc2c(c(=O)n(C)c(=O)n2C)n1Cc1c(F)cccc1Cl | -3.53%
Cc1ccc(Cn2c(C)c(CNCCc3ccccc3C)c(C(=O)O)c2C)cc1 | -9.31%
COC(=O)c1nnn(-c2ccc(C)c(C)c2)c1C(=O)OC | 1.85%
COc1cccc(C(=O)Nc2ccc3nn(-c4ccc(N(C)C)cc4)nc3c2)c1 | 20.6%
CC1CCCN(C/C=C/c2ccc(N(C)C)cc2)C1 (stereo not shown) | -5.94%
COc1cc(C2C3=C(O)CC(C)(C)CC3=NC(C)=C2C(=O)Nc2ccccn2)cc(OC)c1OC (stereo not shown) | -2.07%
O=C(N1CCN(Cc2ccc3c(c2)OCO3)CC1)N(c1ccccc1)c1ccccc1 | -1.95%
COc1ccc2c(CNCCc3ccc(C)cc3)c(C(=O)O)n(Cc3cccc(F)c3)c2c1 | 2.96%
CCOC(=O)N1CCC(N2C(=O)c3ccc(C(=O)NCCOC)cc3C2=O)CC1 | -4.69%
O=C(NCc1ccc(CNC(=O)c2ccccc2)cc1)c1ccccc1 | 0.0345%
O=C(NCc1ccco1)C1CCN(c2nc3ccccc3n2Cc2ccccc2F)CC1 | -1.36%
CCN(CC)CCN1C(=O)C(O)=C(C(=O)c2ccc3c(c2)CC(C)O3)C1c1cccs1 (stereo not shown) | -1.78%
CCOC(=O)c1c(N)nn(C(=O)c2ccccc2)c1-c1ccccc1 | 1.62%
COc1ccc(CN2CCN(c3ccccc3)CC2)cc1C | -0.192%
N#CCNC(=O)[C@H](CS(=O)(=O)Cc1ccccc1)NC(=O)c1cc2ccccc2o1 | -1.7%
N#CCNC(=O)C(CC1CCCCC1)C(=O)NCc1ccc([N+](=O)[O-])cc1 (stereo not shown) | -2.03%
N#C/C(=C/c1ccc(O)cc1)c1nc(-c2ccc(Cl)c(Cl)c2)cs1 | 1.44%

Structure (SMILES) | % Inhibition @ 10 uM
CC(C(=O)NCc1ccco1)n1ccc2cc(S(=O)(=O)N3CCCC3)ccc21 (stereo not shown) | -3.26%
CCN1CCN(C(=S)Nc2ccsc2C(=O)OC)CC1 | 5.95%
CCOC(=O)C1=C(CC)OC(N)=C(C#N)C1c1ccsc1 (stereo not shown) | 1.08%
Cc1ccc(C(=O)C2(C)N(O)C(C)C(c3cccs3)=[N+]2[O-])cc1 (stereo not shown) | 1.84%
CCOC(=O)c1oc2ccc(Br)cc2c1NC(=O)CCN1CCCCC1 | 4.95%
COc1cc(OC)c(NS(=O)(=O)c2ccccc2)cc1Cl | -5.13%
CCOc1ccccc1NC(=O)c1ccncc1 | -0.00273%
O=S(=O)(Nc1ccc(S(=O)(=O)N2CCOCC2)cc1)c1ccc2ccccc2c1 | -1.17%
COc1ccc(C(=O)Nc2cccc(C)c2)cc1S(=O)(=O)N1CCOCC1 | 2.43%
COc1ccc(OC)c(-c2cc(C(=O)Nc3cccnc3Cl)c3ccccc3n2)c1 | 0.907%
CSc1nc2c(sc3ccccc32)c(=O)n1CCCC(=O)NCC1CCCO1 (stereo not shown) | 2.47%
O=C(Nc1cc(C(F)(F)F)ccc1Cl)c1ccc([N+](=O)[O-])o1 | -1.64%
COc1cccc2c(O)c3c(cnn3C)nc12 | -2.63%
COc1ccc(-n2cnc3ccccc32)cc1OC | -10.9%
O=C(NCc1ccc(Cl)cc1)C1CCCN(c2ncnc3c2sc2cccc(F)c23)C1 (stereo not shown) | 4.02%
Cc1ccc(S(=O)(=O)N(C)CCCC(=O)Nc2cccc(C)c2)cc1 | -3.78%
Cc1cc(C)cc(NC(=O)CN(c2cccc(Cl)c2C)S(C)(=O)=O)c1 | -5.92%
O=C(c1ccco1)N1CCN(c2cnn(-c3nc4ccccc4s3)c(=O)c2Cl)CC1 | 4.47%
Cc1cc(NC(=O)CSc2nc3cccnc3[nH]2)no1 | -1.75%
c1ccc(-c2nnc(CN3CCN(C4CCCCC4)CC3)o2)cc1 | 4.95%
Cc1nc2sc3c(c2c(=O)o1)CCC(C)C3 (stereo not shown) | 0.00773%
CN(C)CC(C)(C)CNC1C2CC3CC(C2)CC1C3 (stereo not shown) | -0.603%
Cc1cc(NC(=O)c2ccc(F)cc2)n(Cc2cccc3ccccc23)n1 | -2.28%
CC(C)[C@H](NC(=O)OCc1ccccc1)C(=O)NCC#N | -10.7%
CCN(CC)CCNC(=O)Cn1ncc2c(C)n(Cc3ccccc3)c(C)c2c1=O | -5.81%

Structure (SMILES) | % Inhibition @ 10 uM
Cc1cccnc1NCC(O)COc1ccccc1 (stereo not shown) | -4.35%
Cc1cc([N+](=O)[O-])nn1CC(=O)NCC(C)C | -5.11%
COc1ccc(CNCc2c(C(=O)O)c(C)n(Cc3ccccc3C)c2C)cc1 | -3.67%
Cc1ccc(NC(=O)c2c(C(=O)O)cccc2[N+](=O)[O-])cc1 | 1.9%
O=C(CC1S/C(=N\c2ccccc2)N(CCO)C1=O)Nc1cccc(Cl)c1 (stereo not shown) | -7.23%
COC(=O)CNc1ccnc(O)c1C#N | 1%
O=C1S/C(=C/c2cccnc2)C(=O)N1Cc1ccccc1 | -0.564%
O=C(O)CCSc1nc(O)cc(-c2ccccc2)n1 | -4.59%
Cc1ccnc(NS(=O)(=O)c2ccccc2)c1 | 0.685%
O=C(O)C1CCCCC1C(=O)Nc1cnn(Cc2ccccc2)c1 (stereo not shown) | 2.69%
O=C(NCCc1ccccc1)c1ccc(C(=O)c2ccccc2)o1 | -0.171%
Cc1cc(OCC(=O)NC2CCCC2)cc(C)c1Cl | 1.04%
O=C(NC1CCCCC1)c1csc2c1CCCC2 | -4.12%
CCC(C)NC(=O)c1ccc2c(Cl)c3c(nc2c1)CCCC3 (stereo not shown) | 5.88%
Cc1ccc(/C(O)=C/C=N/c2ccc(S(=O)(=O)Nc3cc(C)nc(C)n3)cc2)cc1 | 0.658%
O=C1N=C(N2CCCCC2)S/C1=C\c1ccc2c(c1)OCO2 | 3.87%
CCOc1ccc(N2C(=O)C3C(C(C)=O)=NN(c4cccc(C)c4)C3C2=O)cc1 (stereo not shown) | -3.87%
CC1=C(c2ccc(C(C)C)cc2)S(=O)(=O)N=C1N1CCC2(CC1)OCCO2 | 5.23%
CN(Cc1ccccc1)C(=O)CN(c1ccccc1)S(C)(=O)=O | -3.38%
CCNC(=O)c1c(C)c(C(=O)OCC)n(CC)c1C | -7.18%
CCc1ccc(Oc2nc3ccccn3c(=O)c2/C=C(\C#N)S(=O)(=O)c2ccc(Cl)cc2)cc1 | 1.19%
CCOC(=O)N1CCN(S(=O)(=O)c2ccc(OC)cc2)CC1 | -5.85%
CN1CCN(CCc2nnc(S)n2-c2ccc([N+](=O)[O-])cc2)CC1 | -6.36%
COc1cc(-c2ccc(NC(=O)c3ccc(C)o3)c(OC)c2)ccc1NC(=O)c1ccc(C)o1 | -5.13%
CSC1=C(C#N)C(c2cccs2)CC(=O)N1 (stereo not shown) | -2.44%

Structure (SMILES) | % Inhibition @ 10 uM
CCCCOc1ccc(C(=O)Nc2sc3c(c2C(=O)OCC)CC(C)(C)OC3)cc1 | 5.41%
COc1ccc(NC(=O)c2cc(OC)c(OC)c(OC)c2)cn1 | -7.18%
O=C1CC(NC23CC4CC(CC(C4)C2)C3)C(=O)N1c1ccc(Cl)cc1 (stereo not shown) | 1.4%
Cc1c2cnn(CC(=O)N3CCOCC3)c(=O)c2c(C)n1Cc1ccccc1 | -5.81%
Nc1cc(=O)n2c(n1)SCC2CS(=O)(=O)c1ccccc1 (stereo not shown) | -1.52%
COc1ccc(CCN2C(=O)CCn3c2nc2c3c(=O)[nH]c(=O)n2C)cc1OC | 1.7%
c1ccc(-c2csc3ncnc(N4CCCCC4)c23)cc1 | 0.812%
N=C(NC(=O)c1sc2ccccc2c1Cl)Nc1nc2ccccc2o1 | 0.343%
CCOC(=O)C1=C(CSc2ccc3ccccc3n2)NC(=O)NC1c1cc(C)ccc1C (stereo not shown) | -2.63%
Cc1ccc(C(=O)Nc2cccc(Oc3ccc(C(=O)O)c(C(=O)O)c3)c2)cc1 | 2.05%
O=C(Cn1c2ccccc2c2nc3n(c(=O)c21)CCS3)c1ccc(F)cc1 | -4.04%
Cc1nc(NCc2ccc3c(c2)OCO3)nc2c1C(=O)c1ccccc1-2 | 2.31%
CCCCN(CC)CCCNC(=O)c1ccc(CS(=O)(=O)c2ccccc2C)o1 | 0.458%
O=C(NCc1ccco1)C1CCC(CNS(=O)(=O)c2cccc3cccnc23)CC1 (stereo not shown) | -6.07%
O=C(NCCN1CCOCC1)c1ccc(-c2ccccc2)cc1 | -2.09%
Cc1c(C(=O)Nc2cc(Cl)c(Cl)cc2Cl)cccc1[N+](=O)[O-] | 0.827%
Cc1nnc(NC(=O)c2nc(SCc3ccc(F)cc3)ncc2Cl)s1 | -0.946%
O=C1CC(Sc2ncccn2)C(=O)N1c1ccc(-c2ccccc2)cc1 (stereo not shown) | -4.15%
CCOc1ccc(CCNC(=O)c2ccc(CS(=O)Cc3ccc(Cl)cc3)o2)cc1OCC (stereo not shown) | -0.999%
COc1cccc(-c2ccc(S(=O)(=O)N[C@@H](CC(C)C)C(=O)NCC#N)cc2)c1 | -0.207%
CCSC1=C(C#N)C(c2ccccc2Cl)C(C(C)=O)=C(C)N1 (stereo not shown) | -5.94%
Cc1cccc(NC(=O)C(Cc2ccc([N+](=O)[O-])cc2)N2C(=O)c3ccccc3C2=O)c1 (stereo not shown) | -8.03%

From publication PMC6919601, “Identification of Plasmodium dipeptidyl aminopeptidase allosteric inhibitors by high throughput screening” (PLoS ONE, 2019)
